± gives the uncertainty stated by the source.
What follows are sequences tested on HEK293T (assay: plasma membrane surface immunostaining intensity (anti-HA, deep receptor scanning) (arbitrary fluorescence units); higher = higher plasma membrane expression). Details: GPCR class: A.

| Sequence | plasma membrane surface immunostaining intensity |
| --- | --- |
| MMEPREAGQHVGAANGAQEDVAFNLIILSLTEGLGLGGLLGNGAVLWLLSSNVYRNPFAIYLLDVACADLIFLGCHMVAIVPDLLQGRLDFPGFVQTSLATLRFFCYIVGLSLLAAVSVEQCLAALFPAWYSCRRPRHLTTCVCALTWALCLLLHLLLSGACTQFFGEPSRHLCRTLWLVAAVLLALLCCTMCGASLMLLLRVERGPQRPPPRGFPGLILLTVLLFLFCGLPFGIYWLSRNLLWYIPHYFYHFSFLMAAVHCAAKPVVYFCLGSAQGRRLPLRLVLQRALGDEAELGAVRETSRRGLVDIAA [MRGPRE] | 1680 ± 420 |
| MSDERRLPGSAVGWLVCGGLSLLANAWGILSVGAKQKKWKPLEFLLCTLAATHMLNVAVPIATYSVVQLRRQRPDFEWNEGLCKVFVSTFYTLTLATCFSVTSLSYHRMWMVCWPVNYRLSNAKKQAVHTVMGIWMVSFILSALPAVGWHDTSERFYTHGCRFIVAEIGLGFGVCFLLLVGGSVAMGVICTAIALFQTLAVQVGRQADRRAFTVPTIVVEDAQGKRRSSIDGSEPAKTSLQTTGLVTTIVFIYDCLMGFPVLVVSFSSLRADASAPWMALCVLWCSVAQALLLPVFLWACDRYRADLKAVREKCMALMANDEESDDETSLEGGISPDLVLERSLDYGYGGDFVALDRMAKYEISALEGGLPQLYPLRPLQEDKMQYLQVPPTRRFSHDDADVWAAVPLPAFLPRWGSGEDLAALAHLVLPAGPERRRASLLAFAEDAPPSRARRRSAESLLSLRPSALDSGPRGARDSPPGSPRRRPGPGPRSASASLLPDAFALTAFECEPQALRRPPGPFPAAPAAPDGADPGEAPTPPSSAQRSPGPRPSAHSHAGSLRPGLSASWGEPGGLRAAGGGGSTSSFLSSPSESSGYATLHSDSLGSAS [GPR153] | 3830 ± 610 |
| MNGTYNTCGSSDLTWPPAIKLGFYAYLGVLLVLGLLLNSLALWVFCCRMQQWTETRIYMTNLAVADLCLLCTLPFVLHSLRDTSDTPLCQLSQGIYLTNRYMSISLVTAIAVDRYVAVRHPLRARGLRSPRQAAAVCAVLWVLVIGSLVARWLLGIQEGGFCFRSTRHNFNSMAFPLLGFYLPLAVVVFCSLKVVTALAQRPPTDVGQAEATRKAARMVWANLLVFVVCFLPLHVGLTVRLAVGWNACALLETIRRALYITSKLSDANCCLDAICYYYMAKEFQEASALAVAPSAKAHKSQDSLCVTLA [GPR35] | 3990 ± 370 |
| METSSPRPPRPSSNPGLSLDARLGVDTRLWAKVLFTALYALIWALGAAGNALSAHVVLKARAGRAGRLRHHVLSLALAGLLLLLVGVPVELYSFVWFHYPWVFGDLGCRGYYFVHELCAYATVLSVAGLSAERCLAVCQPLRARSLLTPRRTRWLVALSWAASLGLALPMAVIMGQKHELETADGEPEPASRVCTVLVSRTALQVFIQVNVLVSFVLPLALTAFLNGVTVSHLLALCSQVPSTSTPGSSTPSRLELLSEEGLLSFIVWKKTFIQGGQVSLVRHKDVRRIRSLQRSVQVLRAIVVMYVICWLPYHARRLMYCYVPDDAWTDPLYNFYHYFYMVTNTLFYVSSAVTPLLYNAVSSSFRKLFLEAVSSLCGEHHPMKRLPPKPQSPTLMDTASGFGDPPETRT [NTSR2] | 790 ± 300 |
| MSMNNSKQLVSPAAALLSNTTCQTENRLSVFFSVIFMTVGILSNSLAIAILMKAYQRFRQKSKASFLLLASGLVITDFFGHLINGAIAVFVYASDKEWIRFDQSNVLCSIFGICMVFSGLCPLLLGSVMAIERCIGVTKPIFHSTKITSKHVKMMLSGVCLFAVFIALLPILGHRDYKIQASRTWCFYNTEDIKDWEDRFYLLLFSFLGLLALGVSLLCNAITGITLLRVKFKSQQHRQGRSHHLEMVIQLLAIMCVSCICWSPFLVTMANIGINGNHSLETCETTLFALRMATWNQILDPWVYILLRKAVLKNLYKLASQCCGVHVISLHIWELSSIKNSLKVAAISESPVAEKSAST [PTGFR] | 942 ± 150 |
| MNTTSSAAPPSLGVEFISLLAIILLSVALAVGLPGNSFVVWSILKRMQKRSVTALMVLNLALADLAVLLTAPFFLHFLAQGTWSFGLAGCRLCHYVCGVSMYASVLLITAMSLDRSLAVARPFVSQKLRTKAMARRVLAGIWVLSFLLATPVLAYRTVVPWKTNMSLCFPRYPSEGHRAFHLIFEAVTGFLLPFLAVVASYSDIGRRLQARRFRRSRRTGRLVVLIILTFAAFWLPYHVVNLAEAGRALAGQAAGLGLVGKRLSLARNVLIALAFLSSSVNPVLYACAGGGLLRSAGVGFVAKLLEGTGSEASSTRRGGSLGQTARSGPAALEPGPSESLTASSPLKLNELN [LTB4R] | 4810 ± 820 |
| MVFAHRMDNSKPHLIIPTLLVPLQNRSCTETATPLPSQYLMELSEEHSWMSNQTDLHYVLKPGEVATASIFFGILWLFSIFGNSLVCLVIHRSRRTQSTTNYFVVSMACADLLISVASTPFVLLQFTTGRWTLGSATCKVVRYFQYLTPGVQIYVLLSICIDRFYTIVYPLSFKVSREKAKKMIAASWVFDAGFVTPVLFFYGSNWDSHCNYFLPSSWEGTAYTVIHFLVGFVIPSVLIILFYQKVIKYIWRIGTDGRTVRRTMNIVPRTKVKTIKMFLILNLLFLLSWLPFHVAQLWHPHEQDYKKSSLVFTAITWISFSSSASKPTLYSIYNANFRRGMKETFCMSSMKCYRSNAYTITTSSRMAKKNYVGISEIPSMAKTITKDSIYDSFDREAKEKKLAWPINSNPPNTFV [GPR19] | 371 ± 34 |
| MDLPVNLTSFSLSTPSPLETNHSLGKDDLRPSSPLLSVFGVLILTLLGFLVAATFAWNLLVLATILRVRTFHRVPHNLVASMAVSDVLVAALVMPLSLVHELSGRRWQLGRRLCQLWIACDVLCCTASIWNVTAIALDRYWSITRHMEYTLRTRKCVSNVMIALTWALSAVISLAPLLFGWGETYSEGSEECQVSREPSYAVFSTVGAFYLPLCVVLFVYWKIYKAAKFRVGSRKTNSVSPISEAVEVKDSAKQPQMVFTVRHATVTFQPEGDTWREQKEQRAALMVGILIGVFVLCWIPFFLTELISPLCSCDIPAIWKSIFLWLGYSNSFFNPLIYTAFNKNYNSAFKNFFSRQH [HTR5A] | 2930 ± 720 |
| MAPTEPWSPSPGSAPWDYSGLDGLEELELCPAGDLPYGYVYIPALYLAAFAVGLLGNAFVVWLLAGRRGPRRLVDTFVLHLAAADLGFVLTLPLWAAAAALGGRWPFGDGLCKLSSFALAGTRCAGALLLAGMSVDRYLAVVKLLEARPLRTPRCALASCCGVWAVALLAGLPSLVYRGLQPLPGGQDSQCGEEPSHAFQGLSLLLLLLTFVLPLVVTLFCYCRISRRLRRPPHVGRARRNSLRIIFAIESTFVGSWLPFSALRAVFHLARLGALPLPCPLLLALRWGLTIATCLAFVNSCANPLIYLLLDRSFRARALDGACGRTGRLARRISSASSLSRDDSSVFRCRAQAANTASASW [GPR25] | 512 ± 62 |
| MGNHTWEGCHVDSRVDHLFPPSLYIFVIGVGLPTNCLALWAAYRQVQQRNELGVYLMNLSIADLLYICTLPLWVDYFLHHDNWIHGPGSCKLFGFIFYTNIYISIAFLCCISVDRYLAVAHPLRFARLRRVKTAVAVSSVVWATELGANSAPLFHDELFRDRYNHTFCFEKFPMEGWVAWMNLYRVFVGFLFPWALMLLSYRGILRAVRGSVSTERQEKAKIKRLALSLIAIVLVCFAPYHVLLLSRSAIYLGRPWDCGFEERVFSAYHSSLAFTSLNCVADPILYCLVNEGARSDVAKALHNLLRFLASDKPQEMANASLTLETPLTSKRNSTAKAMTGSWAATPPSQGDQVQLKMLPPAQ [GPR4] | 2720 ± 260 |
| MIVFLVFKHLFSLRLITMFFLLHFIVLINVKDFALTQGSMITPSCQKGYFPCGNLTKCLPRAFHCDGKDDCGNGADEENCGDTSGWATIFGTVHGNANSVALTQECFLKQYPQCCDCKETELECVNGDLKSVPMISNNVTLLSLKKNKIHSLPDKVFIKYTKLKKIFLQHNCIRHISRKAFFGLCNLQILYLNHNCITTLRPGIFKDLHQLTWLILDDNPITRISQRLFTGLNSLFFLSMVNNYLEALPKQMCAQMPQLNWVDLEGNRIKYLTNSTFLSCDSLTVLFLPRNQIGFVPEKTFSSLKNLGELDLSSNTITELSPHLFKDLKLLQKLNLSSNPLMYLHKNQFESLKQLQSLDLERIEIPNINTRMFQPMKNLSHIYFKNFRYCSYAPHVRICMPLTDGISSFEDLLANNILRIFVWVIAFITCFGNLFVIGMRSFIKAENTTHAMSIKILCCADCLMGVYLFFVGIFDIKYRGQYQKYALLWMESVQCRLMGFLAMLSTEVSVLLLTYLTLEKFLVIVFPFSNIRPGKRQTSVILICIWMAGFLIAVIPFWNKDYFGNFYGKNGVCFPLYYDQTEDIGSKGYSLGIFLGVNLLAFLIIVFSYITMFCSIQKTALQTTEVRNCFGREVAVANRFFFIVFSDAICWIPVFVVKILSLFRVEIPDTMTSWIVIFFLPVNSALNPILYTLTTNFFKDKLKQLLHKHQRKSIFKIKKKSLSTSIVWIEDSSSLKLGVLNKITLGDSIMKPVS [RXFP2] | 194 ± 8.5 |
| MQAVDNLTSAPGNTSLCTRDYKITQVLFPLLYTVLFFVGLITNGLAMRIFFQIRSKSNFIIFLKNTVISDLLMILTFPFKILSDAKLGTGPLRTFVCQVTSVIFYFTMYISISFLGLITIDRYQKTTRPFKTSNPKNLLGAKILSVVIWAFMFLLSLPNMILTNRQPRDKNVKKCSFLKSEFGLVWHEIVNYICQVIFWINFLIVIVCYTLITKELYRSYVRTRGVGKVPRKKVNVKVFIIIAVFFICFVPFHFARIPYTLSQTRDVFDCTAENTLFYVKESTLWLTSLNACLDPFIYFFLCKSFRNSLISMLKCPNSATSLSQDNRKKEQDGGDPNEETPM [P2RY12] | 6070 ± 87 |
| MGPGEALLAGLLVMVLAVALLSNALVLLCCAYSAELRTRASGVLLVNLSLGHLLLAALDMPFTLLGVMRGRTPSAPGACQVIGFLDTFLASNAALSVAALSADQWLAVGFPLRYAGRLRPRYAGLLLGCAWGQSLAFSGAALGCSWLGYSSAFASCSLRLPPEPERPRFAAFTATLHAVGFVLPLAVLCLTSLQVHRVARRHCQRMDTVTMKALALLADLHPSVRQRCLIQQKRRRHRATRKIGIAIATFLICFAPYVMTRLAELVPFVTVNAQWGILSKCLTYSKAVADPFTYSLLRRPFRQVLAGMVHRLLKRTPRPASTHDSSLDVAGMVHQLLKRTPRPASTHNGSVDTENDSCLQQTH [GPR78] | 1840 ± 360 |

Same assay, conditions: GPCR class: C

| Sequence | plasma membrane surface immunostaining intensity |
| --- | --- |
| MATTVPDGCRNGLKSKYYRLCDKAEAWGIVLETVATAGVVTSVAFMLTLPILVCKVQDSNRRKMLPTQFLFLLGVLGIFGLTFAFIIGLDGSTGPTRFFLFGILFSICFSCLLAHAVSLTKLVRGRKPLSLLVILGLAVGFSLVQDVIAIEYIVLTMNRTNVNVFSELSAPRRNEDFVLLLTYVLFLMALTFLMSSFTFCGSFTGWKRHGAHIYLTMLLSIAIWVAWITLLMLPDFDRRWDDTILSSALAANGWVFLLAYVSPEFWLLTKQRNPMDYPVEDAFCKPQLVKKSYGVENRAYSQEEITQGFEETGDTLYAPYSTHFQLQNQPPQKEFSIPRAHAWPSPYKDYEVKKEGS [GPRC5A] | 6447 ± 50 |
| MAIHKALVMCLGLPLFLFPGAWAQGHVPPGCSQGLNPLYYNLCDRSGAWGIVLEAVAGAGIVTTFVLTIILVASLPFVQDTKKRSLLGTQVFFLLGTLGLFCLVFACVVKPDFSTCASRRFLFGVLFAICFSCLAAHVFALNFLARKNHGPRGWVIFTVALLLTLVEVIINTEWLIITLVRGSGEGGPQGNSSAGWAVASPCAIANMDFVMALIYVMLLLLGAFLGAWPALCGRYKRWRKHGVFVLLTTATSVAIWVVWIVMYTYGNKQHNSPTWDDPTLAIALAANAWAFVLFYVIPEVSQVTKSSPEQSYQGDMYPTRGVGYETILKEQKGQSMFVENKAFSMDEPVAAKRPVSPYSGYNGQLLTSVYQPTEMALMHKVPSEGAYDIILPRATANSQVMGSANSTLRAEDMYSAQSHQAATPPKDGKNSQVFRNPYVWD [GPRC5C] | 6290 ± 100 |
